Measured values from the supplement of paper PMC7826260.
This is one part of the list. Each Rep nickase domain was tested in vitro on the same pool of single strands for 1 h at 37 °C with 3 µM enzyme; only the middle of the 90-letter strands is printed. Numbers give uncut DNA relative to the enzyme-free pool, as log2; the lower, the more was cut; hits are not called. The scaling is to total reads; where an enzyme cuts many sequences, the uncut ones exceed 0.

Experiments:
Assay in all cases: uncleaved DNA left, log2 of reads against the no-enzyme library (log2 ratio); higher = less cleavage (more negative = more Rep cleavage of the k-mer); sequences stand for … in CTCGTCCG…ACCGGAGA
[1] = tested on: T1, Rep nickase domain of Muscovy duck circovirus
T1 sequence (protein, residues 1-111, tag omitted): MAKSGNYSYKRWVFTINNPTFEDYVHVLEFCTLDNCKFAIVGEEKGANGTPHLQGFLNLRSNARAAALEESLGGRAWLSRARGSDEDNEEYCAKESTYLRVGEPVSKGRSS
Experimental: (§1)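 A pool of 90-nt single-stranded DNAs with seven random bases just before the constant AC of the nick site (name = the seven bases) was cut by 3 µM recombinant His6-SUMO-tagged Rep nickase domain (300 nM DNA, 50 mM HEPES pH 8.0, 50 mM NaCl, 1 mM MnCl2, 1 h, 37 °C, three replicates). Uncut DNA was amplified and sequenced.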

[2] = tested on: T2, Rep nickase domain of banana bunchy top virus
T2 sequence (protein, residues 1-94, tag omitted): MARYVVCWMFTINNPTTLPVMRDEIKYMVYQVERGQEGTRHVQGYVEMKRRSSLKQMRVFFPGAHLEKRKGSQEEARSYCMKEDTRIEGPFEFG
Experimental: as §1

[3] = tested on: T3, Rep nickase domain of cabbage leaf curl virus
T3 sequence (protein, residues 1-116, tag omitted): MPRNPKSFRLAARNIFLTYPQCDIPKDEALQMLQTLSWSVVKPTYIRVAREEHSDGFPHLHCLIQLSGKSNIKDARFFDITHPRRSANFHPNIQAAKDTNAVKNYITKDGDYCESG
Experimental: as §1

[4] = tested on: T4, Rep nickase domain of chickpea chlorotic dwarf virus
T4 sequence (protein, residues 1-124, tag omitted): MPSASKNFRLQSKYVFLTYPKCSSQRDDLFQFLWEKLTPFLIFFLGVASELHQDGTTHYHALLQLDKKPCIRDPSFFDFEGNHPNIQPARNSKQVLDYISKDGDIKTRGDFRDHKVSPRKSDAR
Experimental: as §1

[5] = tested on: T5, Rep nickase domain of faba bean necrotic yellows virus
T5 sequence (protein, residues 1-98, tag omitted): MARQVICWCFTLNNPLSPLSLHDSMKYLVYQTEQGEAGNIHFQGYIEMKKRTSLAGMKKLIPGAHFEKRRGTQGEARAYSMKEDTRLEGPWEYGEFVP
Experimental: as §1

[6] = tested on: T6, Rep nickase domain of maize striate mosaic virus
T6 sequence (protein, residues 1-117, tag omitted): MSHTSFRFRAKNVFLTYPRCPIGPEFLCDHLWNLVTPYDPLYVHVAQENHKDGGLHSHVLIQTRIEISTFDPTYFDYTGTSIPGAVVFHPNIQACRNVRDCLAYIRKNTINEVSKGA
Experimental: as §1

[7] = tested on: T7, Rep nickase domain of porcine circovirus 2
T7 sequence (protein, residues 2-116, tag omitted): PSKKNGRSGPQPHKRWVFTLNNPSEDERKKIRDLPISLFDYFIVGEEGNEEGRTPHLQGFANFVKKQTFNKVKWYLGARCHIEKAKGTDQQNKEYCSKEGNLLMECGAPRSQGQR
Experimental: as §1

[8] = tested on: T8, Rep nickase domain of tomato golden mosaic virus
T8 sequence (protein, residues 1-124, tag omitted): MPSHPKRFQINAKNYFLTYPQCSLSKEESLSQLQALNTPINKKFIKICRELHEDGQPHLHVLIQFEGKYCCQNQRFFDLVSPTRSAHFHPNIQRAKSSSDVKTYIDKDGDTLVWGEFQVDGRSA
Experimental: as §1

[9] = tested on: T9, Rep nickase domain of tomato yellow leaf curl virus
T9 sequence (protein, residues 1-136, tag omitted): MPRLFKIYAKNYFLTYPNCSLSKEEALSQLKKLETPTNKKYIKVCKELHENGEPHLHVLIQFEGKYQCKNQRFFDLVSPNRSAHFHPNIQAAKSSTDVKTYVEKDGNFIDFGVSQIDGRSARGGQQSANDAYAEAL
Experimental: as §1

[10] = tested on: T10, Rep nickase domain of wheat dwarf virus
T10 sequence (protein, residues 1-137, tag omitted): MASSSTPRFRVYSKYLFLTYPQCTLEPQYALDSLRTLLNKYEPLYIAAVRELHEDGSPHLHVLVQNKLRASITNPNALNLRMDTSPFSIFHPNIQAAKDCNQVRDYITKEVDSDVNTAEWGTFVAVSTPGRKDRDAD
Experimental: as §1

Sequence | uncleaved DNA left (log2) [1] | uncleaved DNA left (log2) [2] | uncleaved DNA left (log2) [3] | uncleaved DNA left (log2) [4] | uncleaved DNA left (log2) [5] | uncleaved DNA left (log2) [6] | uncleaved DNA left (log2) [7] | uncleaved DNA left (log2) [8] | uncleaved DNA left (log2) [9] | uncleaved DNA left (log2) [10]
AGCCGGG | 0.0174 | 0.0958 | -0.0321 | 0.168 | -0.00553 | 0.0399 | 0.214 | -0.0432 | 0.0606 | 0.0836
ACCCACA | 0.163 | -0.0628 | -0.0666 | -1.15 | 0.183 | -0.56 | -0.0448 | -0.0415 | 0.00765 | 0.064
TGCACCT | -0.105 | -0.0388 | -0.0956 | -1.13 | -0.0868 | -0.151 | -0.285 | -0.179 | -0.0366 | -0.178
GGGAGCA | 0.125 | 0.182 | 1.04 | 2.15 | 0.115 | 2.34 | 0.263 | 0.243 | 0.185 | 0.331
TCGTGCT | -0.716 | -0.159 | -1.16 | -1.58 | -0.321 | -1.13 | -3.35 | -0.147 | -0.0049 | -0.253
GATCACC | 0.0368 | 0.108 | 0.264 | 0.442 | -0.0182 | 0.757 | 0.0702 | 0.0029 | 0.175 | 0.198
TGATGGC | 0.036 | 0.00708 | -0.111 | -0.304 | 0.0288 | -0.851 | 0.0701 | 0.0268 | 0.0509 | -0.0142
CATCCTT | 0.182 | -0.0857 | -0.377 | -2.57 | 0.194 | -0.562 | -0.782 | 0.00391 | 0.00182 | -0.00724
CTCTCCG | -0.0173 | -0.0752 | -0.829 | -0.0884 | -0.0813 | -0.827 | 0.157 | -0.0719 | -0.00742 | -0.0965
GGCAGAC | 0.0177 | 0.171 | 0.834 | 1.93 | 0.0178 | 2.21 | 0.332 | 0.122 | 0.107 | 0.132
ACTTTGA | 0.00277 | -0.0517 | -0.364 | -0.327 | -0.052 | -1.18 | -0.0186 | -0.166 | -0.111 | -0.11
GGGCTCT | 0.174 | 0.139 | 0.803 | 1.79 | 0.119 | 2.17 | 0.223 | 0.1 | 0.188 | 0.182
GTGTGAC | 0.0337 | 0.162 | 0.587 | 1.3 | -0.00909 | 2.06 | 0.193 | 0.268 | 0.149 | 0.216
TCCGTTC | -0.078 | -0.244 | 0.0377 | -0.234 | -0.056 | 0.0973 | -0.0465 | -0.165 | -0.196 | -0.182
TTTTTAC | -1.48 | 0.0296 | 0.066 | -1.63 | 0.0613 | -0.0883 | -0.891 | 0.013 | -0.0422 | -0.0217
ATACTAT | 0.0981 | -0.00928 | -0.0749 | -1.52 | -0.0167 | -0.566 | -0.163 | 0.0348 | 0.0249 | 0.0328
